According to PubChem BioAssay AID360 (National Center for Advancing Translational Sciences (NCATS), 2006):
Out of some 48,000 compounds screened, about 550 (1.1%) were called active. Another 4% or so got no clear call; they are omitted. Cut-off read from the data, not from the text of the source: active = potency below about 15 µM; inconclusive = mostly about 16 µM to 33 µM; inactive = weaker than that. This is one part of the list.

molecular target: Lysosomal acid glucosylceramidase (Homo sapiens) (UniProt P04062); test: Glucocerebrosidase; conditions: purified enzyme, resorufin glucoside fluorescence (screen aimed at inhibitors), 20 min; series mostly up to 77 µM;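 note: the screen sought inhibitors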
How it was run: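 Compounds titrated against 0.2 nM normal enzyme, 30 uM resorufin beta-D-glucopyranoside substrate, citrate/phosphate buffer with taurocholate and tween-20, pH 5.9. Reaction ran 20 min at room temperature; fluorescence (Ex 548/Em 600) gave AC50.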
Potency is the fitted concentration of half-maximal effect.

UniProt P04062, sequence (P04062 whole entry, looked up): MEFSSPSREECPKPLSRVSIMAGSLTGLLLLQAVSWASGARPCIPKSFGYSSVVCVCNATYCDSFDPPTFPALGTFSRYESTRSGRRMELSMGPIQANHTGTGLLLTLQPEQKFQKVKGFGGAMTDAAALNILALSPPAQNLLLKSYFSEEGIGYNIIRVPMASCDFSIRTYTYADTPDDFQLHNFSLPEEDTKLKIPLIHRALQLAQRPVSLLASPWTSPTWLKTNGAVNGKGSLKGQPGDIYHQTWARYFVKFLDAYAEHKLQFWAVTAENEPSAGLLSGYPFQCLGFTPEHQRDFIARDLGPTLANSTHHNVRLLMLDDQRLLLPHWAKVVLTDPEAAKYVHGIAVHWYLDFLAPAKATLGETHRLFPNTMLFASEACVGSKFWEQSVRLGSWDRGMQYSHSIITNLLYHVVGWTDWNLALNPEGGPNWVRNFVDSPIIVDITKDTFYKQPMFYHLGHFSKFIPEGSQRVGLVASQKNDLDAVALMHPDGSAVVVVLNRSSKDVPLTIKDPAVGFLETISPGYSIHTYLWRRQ

Potency, inactive:
Cn1c(=O)c2[nH]c(N3CCOCC3)nc2n(-c2ccccc2)c1=O > 76.9 µM, O=C(COC(=O)c1cccnc1Nc1ccccc1F)NCc1ccc2c(c1)OCO2 > 76.9 µM, O=C(Nc1ccc2c(c1)OCO2)OCc1ccccc1 > 76.9 µM, COc1cccc(C2C3CN(C)CC=C3C(C#N)=C(N)C2(C#N)C#N)c1OC (centres undefined) > 76.9 µM, O=C(OCc1c(Cl)nc2sccn12)c1cc2c(s1)CCCC2 > 76.9 µM, CCCS(=O)(=O)C(=C1NCCO1)S(=O)(=O)CCC > 76.9 µM, O=C(NC1CCCCC1)C1CCCN(S(=O)(=O)c2cccs2)C1 (centres undefined) > 76.9 µM, COc1ccc(N2C(=O)CN=C2Nc2cccc(C)c2C)cc1OC > 76.9 µM, Cc1cc(C)n(-c2nc3c(c(=O)[nH]c(=O)n3C)n2C)n1 > 76.9 µM, CCC(=O)N1CCc2cc(S(=O)(=O)N3CCc4ccccc43)ccc21 > 76.9 µM, COc1ccc(C(=O)Nc2cccc(-c3nc4ncccc4o3)c2C)cc1OC > 76.9 µM, Cc1c(NC(=O)C2Cc3ccccc3CN2C(=O)c2ccco2)c(=O)n(-c2ccccc2)n1C (centres undefined) > 76.9 µM, C/C=C/c1ccc(OCCn2cncn2)c(OC)c1 > 76.9 µM, CC(C)CNC(=O)c1cccc(Cn2cc(Cl)cn2)c1 > 76.9 µM, CCOC(=O)c1c(N)nn(C(C)=O)c1-c1ccccc1 > 76.9 µM, Cc1nc2nc(-c3ccco3)nn2c(C)c1Cl > 76.9 µM, CCOC(=O)CNC(=O)CSc1ncnc2c1cnn2-c1ccc(C)cc1 > 76.9 µM, Cc1ccc(C)c(NC(=O)CC(NCCCN2CCOCC2)C(=O)O)c1 (centres undefined) > 76.9 µM, Cc1cccc(OCC(=O)Nc2cccc(-c3nnc(-c4ccccc4)o3)c2)c1C > 76.9 µM, O=C(Nc1ccc(S(=O)(=O)NC2CCCC2)cc1)c1cnccn1 > 76.9 µM, CCCN1/C(=C(/C#N)C2=NS(=O)(=O)c3ccccc32)N(C)c2ccccc21 > 76.9 µM, O=c1[nH]c2ccc(S(=O)(=O)NCc3ccccn3)cc2s1 > 76.9 µM, CN(C)C(=O)N1CCC(C(=O)NCc2ccccc2)CC1 > 76.9 µM, Cc1ccc(C)c2[nH]c(=O)c(C(c3nnnn3Cc3ccco3)N3CCc4ccccc4C3)cc12 (centres undefined) > 76.9 µM, COCCNC(=O)C(c1ccc(Cl)cc1)N(C(=O)CCC(=O)Nc1ccccn1)C1CCCC1 (centres undefined) > 76.9 µM, Cc1ccc(C)c(SCC(=O)Nc2nnc(-c3ccccc3)o2)c1 > 76.9 µM, Cc1ccc(CN(CC(=O)NCCc2ccccc2)C(=O)CCCC(=O)Nc2cc(C)on2)cc1 > 76.9 µM, Cn1nnnc1SCC(=O)Nc1ccc(Oc2ccccc2)cc1 > 76.9 µM, O=C(NCCCN1CCc2ccccc2C1)C1CCN(S(=O)(=O)N2CCCC2)CC1 > 76.9 µM, C=CCn1c(=O)c(C(=O)Nc2nnc(C)s2)c(O)c2ccccc21 > 76.9 µM, COc1cc(C(=S)N2CCCCC2)ccc1OCC(=O)N1CCCC1 > 76.9 µM, Cc1n[nH]c(C)c1S(=O)(=O)N1CCN(C2CCCCC2)CC1 > 76.9 µM, O=C(NCc1ccc(Cl)cc1Cl)c1ccccn1 > 76.9 µM, CCN1CCN(c2ncc(C(=O)Nc3cc(Cl)c(OC)cc3OC)c3ccccc23)CC1, CC(C)(C)OC(=O)NCCCC(CCCNC(=O)OC(C)(C)C)C(=O)O > 76.9 µM, O=C(CSc1nc(O)cc(=O)[nH]1)Nc1ccc2c(c1)CCC2 > 76.9 µM, O=C(OCCCN1C(=O)c2ccccc2C1=O)c1ccco1 > 76.9 µM, CCC(=O)N(Cc1cc2ccccc2[nH]c1=O)C(C)C > 76.9 µM, N#C/C(=C1\CCCN1)c1nc2ccccc2c(=O)[nH]1 > 76.9 µM, O=C(Nc1nncs1)C1c2ccccc2Oc2ccccc21 > 76.9 µM, COc1cccc(-c2nn(C)c3sc(C(=O)N4CCN(c5ccccn5)CC4)cc23)c1 > 76.9 µM, CCn1c(=O)c(C(=O)NCc2ccc(OC)c(OC)c2)c(O)c2ccccc21 > 76.9 µM, O=C(O)CCC(=O)NCC1OCCc2ccccc21 (centres undefined) > 76.9 µM, CCOC(=O)c1sc(NC(=O)CSc2nnc(-c3ccco3)o2)c(C(=O)OCC)c1C > 76.9 µM, CCC(=O)N1CCc2cc(S(=O)(=O)CCC(=O)NCCc3ccc(OC)c(OC)c3)ccc21 > 76.9 µM, O=C(CCC(=O)c1cccs1)OCC(=O)N1CCN(S(=O)(=O)c2ccccc2)CC1 > 76.9 µM, Cc1occc1C(=O)NC(C)C1CCCO1 (centres undefined) > 76.9 µM, CC(C)(C)OC(=O)N1CCCC1C(=O)O (centres undefined) > 76.9 µM, CCOc1ccc(NS(=O)(=O)c2ccc3c(c2)CCN3C(=O)CCC(=O)O)cc1 > 76.9 µM, CCOC(=O)C1CCCN(C(=O)c2cc(Nc3ccc(OC)c(OC)c3)nc3ccccc23)C1 (centres undefined) > 76.9 µM, Cc1cc(C)nc(N2CCCC(C(=O)NCCc3cccc(F)c3)C2)n1 (centres undefined) > 76.9 µM, CN(C(=O)c1cccc(C#N)c1)c1nnc(C2CCOC2)s1 (centres undefined) > 76.9 µM, Cc1nn(-c2ccccc2)cc1/C=N/O > 76.9 µM, CC(Oc1ccccc1)C(=O)Nc1ccc(S(=O)(=O)NCC2CCCO2)cc1 (centres undefined) > 76.9 µM, Clc1ccc(-c2nn3c(Cn4cnc5ccccc54)nnc3s2)c(Cl)c1 > 76.9 µM, O=C(Cn1cnc2ccccc2c1=O)NCCC(=O)Nc1ccc2c(c1)OCCO2 > 76.9 µM, COc1cc(C)c(S(=O)(=O)n2ccc(C)n2)cc1C > 76.9 µM, CCOC(=O)CNC(=O)c1nn(-c2cccc(OC)c2)c(=O)c2ccccc12 > 76.9 µM, O=C(CSc1n[nH]c(-c2ccc(S(=O)(=O)NC3CCCCC3)cc2)n1)N1CCCC1, Cc1ccccc1Cn1ccc(NC(=O)c2cc3nc(-c4ccco4)cc(C(F)(F)F)n3n2)n1 > 76.9 µM, Cc1ccc2nsnc2c1S(=O)(=O)N1CCN(C(=O)C2CCCO2)CC1 (centres undefined) > 76.9 µM, COc1ccc(-c2cc(C(=O)N3CCOCC3)c3cc(C)ccc3n2)cc1 > 76.9 µM, O=C(Nc1nc2c(s1)CCCC2=O)c1cnccn1 > 76.9 µM, CCOc1ccccc1NC(=O)C1Cc2ccccc2CN1S(C)(=O)=O (centres undefined) > 76.9 µM, COC(=O)C1CCN(C(=O)C23CCC(C)(C(=O)O2)C3(C)C)CC1 (centres undefined) > 76.9 µM, COc1cc(NC(=O)c2cccs2)c(OC)cc1NC(=O)c1ccco1 > 76.9 µM, COc1ccc(NS(=O)(=O)c2cccc(C(=O)O)c2)cc1 > 76.9 µM, COc1cc(C(=O)N2CCC(NC(=O)C(Cc3ccc(C)cc3)NC(C)=O)CC2)cc(OC)c1OC (centres undefined) > 76.9 µM, CC(=O)c1ccc(N2C(=O)[C@@H]3C(CCC(N)=O)NC4(C(=O)Nc5c4ccc(Cl)c5C)[C@@H]3C2=O)cc1 (some centres undefined) > 76.9 µM, CC(C)(C)n1nnnc1C(c1cccnc1)N1CCN(C2CCCCC2)CC1 (centres undefined) > 76.9 µM, CC(=O)Nc1c(O)nc(SCC(=O)Nc2nnc(CC(C)C)s2)[nH]c1=O > 76.9 µM, CCOc1ccccc1C(=O)NCc1ccco1 > 76.9 µM, COc1ccc(CNC(=O)c2noc3c2CCCC3)cc1 > 76.9 µM, COc1cccc(C2Nc3ccccc3C(=O)N2O)c1O (centres undefined) > 76.9 µM, CCNC(=O)COC(=O)c1ccc(S(=O)(=O)N2CCCCCC2)cc1 > 76.9 µM, C=CCn1cc(C(=O)NCCCOC)c(=O)c2cc(S(=O)(=O)N(CC)CC)ccc21 > 76.9 µM, COC(=O)c1cn(NC(=O)c2ccncc2)c(=O)c2ccccc12 > 76.9 µM, Nc1cc(Br)c(N)c(Br)c1 > 76.9 µM, CC(=O)Nc1nc(C=C(Cl)Cl)cs1 > 76.9 µM, COc1ccccc1CC(NC(C)=O)C(=O)NC1CCN(c2nnnn2-c2ccccc2)CC1 (centres undefined) > 76.9 µM, O=C(O)c1cc(-c2ccncc2)nc2ccc(F)cc12 > 76.9 µM, CCCCn1c(=NC(=O)c2cccnc2)c(C(=O)OCC)cc2c(=O)n3ccccc3nc21 > 76.9 µM, Cc1ccc(S(=O)(=O)N2CC(=NO)C2)cc1 > 76.9 µM, COc1cccc2cc(-c3nnc(SCC(=O)NCc4ccccc4)n3C)oc12 > 76.9 µM, CSc1nc(N(CCO)CCO)c2sc3nc(-c4ccco4)c4c(c3c2n1)CCC4 > 76.9 µM, CC(=O)c1cc2c(O)c(O)ccc2o1 > 76.9 µM, N/C(=N\O)C1COc2ccccc2O1 (centres undefined) > 76.9 µM, COc1ccc(O)c(C(=O)c2cc(C#N)c(=O)n(-c3c(C)n(C)n(-c4ccccc4)c3=O)c2)c1 > 76.9 µM, CC(C)(C)c1nnc2sc(SCC(=O)N3CCCc4ccccc43)nn2c1=O > 76.9 µM
